According to article PMC12276331 (2025):

Columns and labels:
Experiment in all cases: single bond, SMFS Bell-Evans
hIgG4 = target: hIgG4
hIgG1 = target: hIgG1
hIgG2A = target: hIgG2A
hIgG2B = target: hIgG2B

koff (hIgG4): 0.041 s⁻¹
koff (hIgG1): 0.041 s⁻¹
koff (hIgG2A): 0.029 s⁻¹
koff (hIgG2B): 0.03 s⁻¹
B1: transmembrane hCD40 receptor expressed on the surface of CHO cells (CHO-CD40-GFP) (receptor)
chain: [about 150 residues not written out]ALVVIPIIFGILFAILLVLVFIKKVAKKPTNKAPHPKQEPQEINFPDDLPGSNTAAPVQETLHGCQPVTQEDGKESRISVQERQ
